The entries are a selection whose mix differs from that of the whole data set. The list includes weakly bound sequences.

The first assay addresses T1, GST-Ap-NF-kB RHD (UniProt A0A913YAJ5).
T1 sequence: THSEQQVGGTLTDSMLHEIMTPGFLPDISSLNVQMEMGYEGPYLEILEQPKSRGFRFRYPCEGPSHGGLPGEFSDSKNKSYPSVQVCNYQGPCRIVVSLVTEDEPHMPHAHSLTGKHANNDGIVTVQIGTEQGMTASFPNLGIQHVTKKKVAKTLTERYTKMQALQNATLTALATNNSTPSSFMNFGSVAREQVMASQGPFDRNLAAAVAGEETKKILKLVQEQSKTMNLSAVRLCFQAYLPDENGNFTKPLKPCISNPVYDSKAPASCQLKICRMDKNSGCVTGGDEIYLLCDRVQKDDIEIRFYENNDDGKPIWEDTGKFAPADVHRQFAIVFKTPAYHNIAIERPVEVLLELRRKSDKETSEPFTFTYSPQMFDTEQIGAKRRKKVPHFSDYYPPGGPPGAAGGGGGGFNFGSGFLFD
The experiment in a line: protein-binding microarray (PBM). To be noted: PBM: ~300 nM protein, 6 mM HEPES pH 7.8, 80 mM KCl, 0.5 mM EDTA, 0.5 mM EGTA, 6% glycerol, 35 ng/ul poly-dIdC, 1% milk, 1 h, room temperature; high values mean tight binding; double strand, one strand shown.
In turn, “CCGATTAACATCACCCAATTCCCTGATGTTAATCGGGTCTTGATTCGCTTGACGCTGCTG” came in with a binding signal of 3.33 z-score.

As to “CCGATTAACATCAGCATTCCCCCTGATGTTAATCGGGTCTTGATTCGCTTGACGCTGCTG”, the binding signal is 7.2 z-score.

For “CCGATTAACATCAGGGAGTCCCCTGATGTTAATCGGGTCTTGATTCGCTTGACGCTGCTG”, the binding signal stood at 10.9 z-score.

The sequence “CCGATTAACATCAGAAAACCCCCTGATGTTAATCGGGTCTTGATTCGCTTGACGCTGCTG” came in with a binding signal of 10.8 z-score.

Consider “CCGATTAACATCAAAATTCCCACTGATGTTAATCGGGTCTTGATTCGCTTGACGCTGCTG”, for which the binding signal turned out to be 3.89 z-score.

“CCGATTAACATCACCTTCTTTACTGATGTTAATCGGGTCTTGATTCGCTTGACGCTGCTG” had a binding signal of 0.402 z-score.

Sequence “CCGATTAACATCAGGGAAACTCATGATGTTAATCGGGTCTTGATTCGCTTGACGCTGCTG” gave a binding signal of 3.29 z-score.

Sequence “CCGATTAACATCAGAGATTTCCCTGATGTTAATCGGGTCTTGATTCGCTTGACGCTGCTG” yielded a binding signal of 3.94 z-score.

The next assay addresses T2, GST-Nv-NF-kB (Cys allele) (UniProt E5G601).
T2 sequence: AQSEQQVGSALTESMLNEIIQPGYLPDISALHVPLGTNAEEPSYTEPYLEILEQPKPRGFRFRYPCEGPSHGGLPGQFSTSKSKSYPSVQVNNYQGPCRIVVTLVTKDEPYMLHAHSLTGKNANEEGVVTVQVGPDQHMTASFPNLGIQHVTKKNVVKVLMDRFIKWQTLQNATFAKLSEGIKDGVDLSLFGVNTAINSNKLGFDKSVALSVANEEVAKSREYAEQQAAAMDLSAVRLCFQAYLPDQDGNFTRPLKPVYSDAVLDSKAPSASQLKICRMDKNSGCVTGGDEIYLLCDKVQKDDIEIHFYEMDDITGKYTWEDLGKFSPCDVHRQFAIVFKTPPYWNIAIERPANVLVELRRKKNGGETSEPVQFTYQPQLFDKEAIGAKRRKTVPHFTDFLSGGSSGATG
The experiment in a line: protein-binding microarray (PBM). The settings on record: PBM: ~300 nM protein, 6 mM HEPES pH 7.8, 80 mM KCl, 0.5 mM EDTA, 0.5 mM EGTA, 6% glycerol, 35 ng/ul poly-dIdC, 1% milk, 1 h, room temperature; high values mean tight binding; double strand, one strand shown.
“CCGATTAACATCAGGGAATACCCTGATGTTAATCGGGTCTTGATTCGCTTGACGCTGCTG” yielded a binding signal of 11.2 z-score.

As to “CCGATTAACATCAAGGGGGATTCTGATGTTAATCGGGTCTTGATTCGCTTGACGCTGCTG”, the binding signal was determined as 8.85 z-score.

Turning to “CCGATTAACATCAATATCCCCCATGATGTTAATCGGGTCTTGATTCGCTTGACGCTGCTG”, the binding signal stood at 4.94 z-score.

“CCGATTAACATCAAGATTTCCCATGATGTTAATCGGGTCTTGATTCGCTTGACGCTGCTG” yielded a binding signal of 4.42 z-score.

“CCGATTAACATCAAGGGGGGTGGTGATGTTAATCGGGTCTTGATTCGCTTGACGCTGCTG” showed a binding signal of 3.67 z-score.

As for “CCGATTAACATCAGGGGGTCTACTGATGTTAATCGGGTCTTGATTCGCTTGACGCTGCTG”, the binding signal amounted to 2.44 z-score.

As for “CCGATTAACATCAAAGCCCCCCCTGATGTTAATCGGGTCTTGATTCGCTTGACGCTGCTG”, the binding signal came out at 4.23 z-score.

Take “CCGATTAACATCAAAAATTCCCATGATGTTAATCGGGTCTTGATTCGCTTGACGCTGCTG”: the binding signal was 7.75 z-score.

For the sequence “CCGATTAACATCAAACAAACCCCTGATGTTAATCGGGTCTTGATTCGCTTGACGCTGCTG”, the binding signal is 3.42 z-score.

“CCGATTAACATCACCCCATCTCGTGATGTTAATCGGGTCTTGATTCGCTTGACGCTGCTG” gave a binding signal of 0.327 z-score.

With “CCGATTAACATCATGTATGCCCCTGATGTTAATCGGGTCTTGATTCGCTTGACGCTGCTG”, the binding signal was 1.71 z-score.

The sequence “CCGATTAACATCAAAGTCCCGGGTGATGTTAATCGGGTCTTGATTCGCTTGACGCTGCTG” gave a binding signal of 3.61 z-score.

For the sequence “CCGATTAACATCAACGTCCCCCCTGATGTTAATCGGGTCTTGATTCGCTTGACGCTGCTG”, the binding signal came out at 3.81 z-score.

As for “CCGATTAACATCACCAAAATCCCTGATGTTAATCGGGTCTTGATTCGCTTGACGCTGCTG”, the binding signal is 2.45 z-score.

Turning to “CCGATTAACATCAGAAATCCCAATGATGTTAATCGGGTCTTGATTCGCTTGACGCTGCTG”, the binding signal was 2.13 z-score.

Consider “CCGATTAACATCAAAGAGCCCCCTGATGTTAATCGGGTCTTGATTCGCTTGACGCTGCTG”, for which the binding signal was found to be 4.16 z-score.

Sequence “CCGATTAACATCAGATTATCCCCTGATGTTAATCGGGTCTTGATTCGCTTGACGCTGCTG” gave a binding signal of 6.05 z-score.

In turn, “CCGATTAACATCAGGGGGTAAAATGATGTTAATCGGGTCTTGATTCGCTTGACGCTGCTG” yielded a binding signal of 4.2 z-score.

For a further assay, the target named is T3, GST-Dm-Relish (UniProt Q94527).
T3 sequence: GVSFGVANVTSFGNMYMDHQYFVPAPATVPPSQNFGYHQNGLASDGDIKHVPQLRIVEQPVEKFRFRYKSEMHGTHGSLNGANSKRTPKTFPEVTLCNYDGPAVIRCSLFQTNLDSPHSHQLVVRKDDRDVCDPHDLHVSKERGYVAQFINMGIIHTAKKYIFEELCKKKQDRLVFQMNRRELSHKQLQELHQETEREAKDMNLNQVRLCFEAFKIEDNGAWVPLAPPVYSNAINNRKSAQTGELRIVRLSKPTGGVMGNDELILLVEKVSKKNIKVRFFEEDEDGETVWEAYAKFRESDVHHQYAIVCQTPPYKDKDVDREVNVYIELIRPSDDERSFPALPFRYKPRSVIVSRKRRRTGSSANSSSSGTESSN
Put plainly: protein-binding microarray (PBM). The settings on record: PBM: ~300 nM protein, 6 mM HEPES pH 7.8, 80 mM KCl, 0.5 mM EDTA, 0.5 mM EGTA, 6% glycerol, 35 ng/ul poly-dIdC, 1% milk, 1 h, room temperature; Ap Aiptasia and Nv Nematostella (sea anemones) / Co Capsaspora / Aq Amphimedon (sponge) / Dm Drosophila / Hu human; RHD is the Rel homology domain; high values mean tight binding; most listed sequences are background and not binding sites; double strand, one strand shown.
Regarding “CCGATTAACATCAGGGGGTTGACTGATGTTAATCGGGTCTTGATTCGCTTGACGCTGCTG”, the binding signal worked out at 4.51 z-score.

In turn, “CCGATTAACATCAAAAATCCCACTGATGTTAATCGGGTCTTGATTCGCTTGACGCTGCTG” displayed a binding signal of 7.7 z-score.

“CCGATTAACATCAGGCGATCCCCTGATGTTAATCGGGTCTTGATTCGCTTGACGCTGCTG” returned a binding signal of 6.53 z-score.

“CCGATTAACATCATAAATTCCCATGATGTTAATCGGGTCTTGATTCGCTTGACGCTGCTG” gave a binding signal of 5.06 z-score.

“CCGATTAACATCATATTGGGAAATGATGTTAATCGGGTCTTGATTCGCTTGACGCTGCTG”: the binding signal worked out at 0.861 z-score.

“CCGATTAACATCATTGGGAAAAATGATGTTAATCGGGTCTTGATTCGCTTGACGCTGCTG” came in with a binding signal of 0.862 z-score.

As to “CCGATTAACATCAATTTGGGAAATGATGTTAATCGGGTCTTGATTCGCTTGACGCTGCTG”, the binding signal is 0.485 z-score.

As to “CCGATTAACATCAAACTTTTCCCTGATGTTAATCGGGTCTTGATTCGCTTGACGCTGCTG”, the binding signal was found to be 1.45 z-score.

In turn, “CCGATTAACATCAGGGAAAACACTGATGTTAATCGGGTCTTGATTCGCTTGACGCTGCTG” gave a binding signal of 5.1 z-score.

Consider “CCGATTAACATCAAAGGGAATAGTGATGTTAATCGGGTCTTGATTCGCTTGACGCTGCTG”, for which the binding signal turned out to be 0.805 z-score.

“CCGATTAACATCACAAAATTCCCTGATGTTAATCGGGTCTTGATTCGCTTGACGCTGCTG”: the binding signal was determined as 6.16 z-score.

In turn, “CCGATTAACATCATTCCGGGAAATGATGTTAATCGGGTCTTGATTCGCTTGACGCTGCTG” yielded a binding signal of 0.735 z-score.

The sequence “CCGATTAACATCAGGGAACTTTATGATGTTAATCGGGTCTTGATTCGCTTGACGCTGCTG” returned a binding signal of 4.83 z-score.

“CCGATTAACATCAAAGCACCCCCTGATGTTAATCGGGTCTTGATTCGCTTGACGCTGCTG” showed a binding signal of 3.26 z-score.

For the sequence “CCGATTAACATCACCCAATTCCCTGATGTTAATCGGGTCTTGATTCGCTTGACGCTGCTG”, the binding signal stood at 1.62 z-score.

Turning to “CCGATTAACATCAGCATTCCCCCTGATGTTAATCGGGTCTTGATTCGCTTGACGCTGCTG”, the binding signal worked out at 4.53 z-score.

Regarding “CCGATTAACATCAGGGAGTCCCCTGATGTTAATCGGGTCTTGATTCGCTTGACGCTGCTG”, the binding signal is 10.7 z-score.

On to “CCGATTAACATCAGAAAACCCCCTGATGTTAATCGGGTCTTGATTCGCTTGACGCTGCTG”, for which the binding signal was 10 z-score.

The sequence “CCGATTAACATCAAAATTCCCACTGATGTTAATCGGGTCTTGATTCGCTTGACGCTGCTG” gave a binding signal of 5.55 z-score.

As to “CCGATTAACATCACCTTCTTTACTGATGTTAATCGGGTCTTGATTCGCTTGACGCTGCTG”, the binding signal is 0.459 z-score.

As for “CCGATTAACATCAGGGAAACTCATGATGTTAATCGGGTCTTGATTCGCTTGACGCTGCTG”, the binding signal is 1.31 z-score.

Consider “CCGATTAACATCAGAGATTTCCCTGATGTTAATCGGGTCTTGATTCGCTTGACGCTGCTG”, for which the binding signal was determined as 2.1 z-score.
